Columns and labels:
[1] = biological target: T1, IL-2Rβ-Fc (Acro Biosystems, catalog #ILB-H5253) (UniProt P14784 27-239, limits assumed); experiment: SPR (Biacore T200), kinetic; receptor-Fc captured on anti-Fc CM5 chip, IL-2 variant as analyte
T1 construct: Bought reagent; Captured on an anti-Fc chip as SPR ligand; also called CD122; not shown: Fc part of the bought fusion
T1 sequence (looked up): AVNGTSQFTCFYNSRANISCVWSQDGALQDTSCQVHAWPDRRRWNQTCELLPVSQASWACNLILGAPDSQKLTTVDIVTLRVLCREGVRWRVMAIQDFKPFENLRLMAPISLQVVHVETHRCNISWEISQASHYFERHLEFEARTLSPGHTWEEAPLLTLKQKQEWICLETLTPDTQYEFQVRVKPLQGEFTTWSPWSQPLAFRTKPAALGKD
Protocol: (§1) Anti-Fc polyclonal antibodies were immobilized onto a CM5 chip (GE Life Sciences) using amine coupling chemistry (from Amine Coupling Kit, GE Life Sciences). The immobilization steps were carried out at a flow rate of 25 μL/minute in 1×HBS-EP+ buffer (GE Life Sciences; 10× Stock diluted before use). The sensor surfaces were activated for 7 minutes with a mixture of NHS (0.05 M) and EDC (0.2 M). The anti-Fc antibodies were injected over all four flow cells at a concentration of 25 μg/mL in 10 mM sodium acetate, pH 4.5, for seven minutes. Ethanolamine (1 M, pH 8.5) was injected for seven minutes to block any remaining activated groups.
(§2) Kinetic binding experiments were performed at 25° C. using 1×HBS-EP+ with 0.05% BSA buffer. IL-2Rα-Fc or IL-2Rβ-Fc (Acro Biosystems, catalog #ILA-H5251, ILB-H5253) was injected over the anti-Fc surface at concentrations of 3-10 μg/mL for 12 seconds at a flow rate of 10 μL/minute on flow cells 2, 3 and 4, followed by a buffer wash for 30 seconds at the same flow rate. Kinetic characterization of conjugated or unconjugated aldesleukin or variants was carried out in a range of concentrations from 1 nM-10 μM and one injection of no antigen. After capturing ligand (IL-2Rα-Fc or IL-2Rβ-Fc) on the anti-Fc surface, the analyte (IL-2 variant) was bound for 60 seconds, followed by a 180 second dissociation phase at a flow rate of 50 μL/min. Between each ligand capture and analyte binding cycle, regeneration was carried out using two injections of 10 mM Glycine pH 1.5 for 30 seconds at 30 μL/minute, followed by a 30 second buffer wash step.

[2] = biological target: T2, IL-2Rα-Fc (Acro Biosystems, catalog #ILA-H5251) (UniProt P01589 22-217, limits assumed); experiment: as above
T2 construct: Bought reagent; Captured on an anti-Fc chip as SPR ligand; also called CD25; not shown: Fc part of the bought fusion
T2 sequence (looked up): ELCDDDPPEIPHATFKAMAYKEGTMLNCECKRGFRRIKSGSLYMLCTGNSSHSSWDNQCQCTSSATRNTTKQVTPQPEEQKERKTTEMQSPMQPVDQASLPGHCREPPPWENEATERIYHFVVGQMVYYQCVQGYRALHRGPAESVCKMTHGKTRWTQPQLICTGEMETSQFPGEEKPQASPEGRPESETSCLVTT
Protocol: as §1, §2

Aldesleukin-6His, sequence (chain): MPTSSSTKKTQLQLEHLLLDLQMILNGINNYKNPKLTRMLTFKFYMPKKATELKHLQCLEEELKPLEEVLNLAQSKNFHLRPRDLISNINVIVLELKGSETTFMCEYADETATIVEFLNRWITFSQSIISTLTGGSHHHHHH

Row | Binder | Kd [1] [nM] | Kd [2] [nM]
1 | Aldesleukin-6His (ligand, also called Ald-6HIS; Ald-6His) not shown | 300 | 8
2 | Ald-6HIS_F41pAMF (SP9960), unconjugated (ligand, X42 = pAMF (F41 in SEQ ID NO: 2/3 numbering), also called Aldesleukin-6His F41TAG p-azidomethyl-L-phenylalanine) not shown | 200 | 
3 | Ald-6HIS_F77pAMF (SP9942), unconjugated (ligand, X78 = pAMF (F77 in SEQ ID NO: 2/3 numbering), also called Aldesleukin-6His F77TAG p-azidomethyl-L-phenylalanine) not shown |  | 10
